# The supplement of paper PMC12217912
# The other results are listed elsewhere or left out. The full chains were built here from the parent and the listed change. Values near 0.05 are background.
# B1: TEV protease; numbered along this chain (parent)
# chain: MGESLFKGPRDYNPISSSICHLTNESDGHTTSLYGIGFGPFIITNKHLFRRNNGTLVVQSLHGVFKVKDTTTLQQHLVDGRDMIIIRMPKDFPPFPQKLKFREPQREERICLVTTNFQTKSMSSMVSDTSCTFPSGDGIFWKHWIQTKDGQCGSPLVSTRDGFIVGIHSASNFTNTNNYFTSVPKNFMELLTNQEAQQWVSGWRLNADSVLWGGHKVFMVKPEEPFQPVKEATQL
# Variants of: B1
# Assay: raw area under fraction-flipped curve 0-4 h after induction (AUC4h, not background-subtracted), DNA-recorder readout of cleavage of the substrate (dimensionless); higher = more cleavage of the substrate by the protease variant
# Details: temperature: 34 °C; time window: 0-4 h after rhamnose induction
# Procedure: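 In vivo DNA recorder in E. coli TOP10(DE3) ΔrhaA at 34 °C. Each TEVp single-site mutant (parent TEVp 0) is paired with a single-site variant of the 7-mer TEVs (canonical ENLYFQ|S). The substrate sits between flexible linkers in a Bxb1-sfGFP-TEVs-SsrA fusion, so cleavage stabilises Bxb1 and speeds flipping of a recombination array, read by NGS. The value is the raw area under the fraction-flipped curve over 0-4 h after rhamnose induction (AUC4h), with ≥20 reads per time point. It is not background-subtracted; inactive controls average about 0.047.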
# 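Further: Bxb1 expression induced with 0.2% (w/v) L-rhamnose at OD600 near 0.5, cultures sampled hourly, flipped fraction per protease–substrate barcode pair counted by paired-end Illumina sequencing.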
Variant,area with substrate ENLYFAS,area with substrate ENLYFCS,area with substrate ENLYFES,area with substrate ENLYFFS,area with substrate ENLYFHS,area with substrate ENLYFIS,area with substrate ENLYFKS,area with substrate ENLYFMS,area with substrate ENLYFNS,area with substrate ENLYFPS,area with substrate ENLYFRS,area with substrate ENLYFSS,area with substrate ENLYFVS,area with substrate ENLYFGS,area with substrate ENLYFLS,area with substrate ENLYFTS,area with substrate ENLYFWS,area with substrate ENLYFYS,area with substrate ENLYFDS
D82W,0.0465,0.0498,0.057,0.0414,0.055,0.0554,0.0621,0.0654,0.0445,0.0551,0.0585,0.0633,0.0535,–,–,–,–,–,–
D82F,0.0586,0.0581,0.0502,0.0593,–,0.0491,0.0522,0.0523,0.0481,0.0586,0.044,0.0615,0.059,0.051,0.048,0.069,0.0485,0.0505,–
R106W,0.0615,0.0529,0.0746,0.0751,0.0577,0.0635,0.0635,0.0769,0.0591,0.0599,0.0546,0.0615,0.0632,0.053,0.0541,0.0638,0.0641,0.0568,0.056
I86E,0.0381,–,0.0402,0.0427,0.0353,0.0387,–,0.0328,–,0.0389,0.0283,–,–,0.031,–,0.0607,0.0329,0.034,–
I86K,0.0255,0.0463,0.0392,0.0417,0.0281,0.0381,0.0324,–,0.0369,–,–,0.0393,–,–,–,0.0336,–,0.0442,–
R102W,0.0586,0.0556,0.0447,–,0.0421,0.0517,–,0.054,0.0576,0.0575,0.0506,–,0.0458,0.0526,0.0369,0.0562,0.0451,0.0414,–
I84C,0.0562,–,0.0626,0.0641,–,0.05,–,0.0721,–,0.0402,0.055,0.0441,0.0583,–,0.0671,0.0734,0.0486,0.0617,–
K90L,0.0603,–,–,0.0746,0.0578,0.0569,0.0658,0.0646,0.0589,0.0568,0.0631,0.0491,0.0507,–,0.0522,0.0555,0.0481,0.0491,0.0869
L77V,0.0665,0.067,–,0.0839,–,0.059,0.0567,0.0545,–,0.05,–,–,0.0506,0.0684,–,0.056,–,0.045,–
L77D,0.0772,0.0599,0.051,0.0436,0.0594,0.0636,0.0888,0.0578,0.0567,0.0163,0.0587,0.0397,0.059,–,0.0598,0.0608,0.0523,0.0688,0.0437
Q97S,0.0651,0.0503,0.0656,–,0.0661,–,–,–,0.0365,–,–,–,–,–,–,–,0.0905,–,0.0735
Q97I,0.0556,–,–,0.0789,–,0.0676,–,0.0607,0.0587,–,–,–,–,–,–,0.0622,0.0667,–,–
Q105A,0.0562,0.0553,0.0605,0.0562,0.0636,0.0569,0.0627,0.0644,0.06,0.0597,0.0569,–,0.0453,0.0847,0.0647,0.0647,0.0687,0.0496,0.0468
Q105G,0.0525,0.0597,0.063,0.0615,0.0588,0.0608,0.0592,0.0589,0.0606,0.0615,–,0.0558,–,–,–,0.054,0.0532,0.0605,–
E107N,0.063,–,0.0657,0.081,–,0.0628,0.059,0.0797,0.0666,0.0545,0.0646,–,0.0458,0.0591,–,–,0.0601,–,–
E107M,0.0537,0.052,0.0623,0.0594,–,–,–,–,–,0.062,0.0576,–,0.0637,–,–,0.0512,0.052,0.0622,0.0434
E107K,0.0614,0.0572,0.0735,0.0586,0.0584,0.0562,0.0662,0.0658,0.0739,0.0663,0.0551,0.0606,0.0755,–,–,0.062,0.0503,0.0792,–
E107S,0.0539,0.058,0.0674,0.0676,0.0736,0.0635,0.0614,0.0691,0.0575,0.0569,0.0524,–,–,0.0506,0.061,0.057,–,0.0419,0.0551
R81D,0.0441,0.0495,0.0531,0.0668,0.054,0.0585,0.094,0.064,0.0647,0.0444,–,0.0456,–,–,–,–,0.0481,–,0.0583
E108V,0.0677,0.0512,0.0548,0.0666,0.0472,0.0493,0.0634,0.0593,0.0548,0.0525,0.0607,0.0583,–,0.0581,0.0595,0.0443,0.0548,0.0592,–
E103W,0.0576,0.0524,0.0462,0.0666,0.0482,0.0494,0.0512,0.0639,0.054,0.0564,0.0545,0.0713,0.0496,0.0582,0.0399,0.0522,0.0533,0.0551,–
I110M,0.0772,0.0683,0.0582,0.0768,–,0.072,0.0583,0.0603,0.0474,0.0632,–,–,–,–,–,0.0502,0.0529,0.103,0.0556
I85V,0.116,–,0.0767,0.0739,–,–,0.0602,0.053,0.0577,0.0666,0.0673,–,0.056,–,–,0.0617,0.0627,0.0528,–
I85M,0.0826,0.0546,–,0.0425,0.0413,0.0551,0.0524,–,0.052,0.068,–,–,–,–,–,0.0492,–,–,0.0519
F95V,0.0334,–,–,0.0524,–,0.0502,–,0.066,–,0.0533,–,–,–,–,–,0.0554,–,0.052,–
F95W,0.049,0.0546,0.0724,0.073,–,0.056,0.0674,0.061,0.0696,0.0602,0.068,–,0.0606,–,0.0729,0.0562,0.0472,0.057,–
